Experimental data as given in PubChem BioAssay AID504332 (National Center for Advancing Translational Sciences (NCATS), 2011).
Out of some 350,000 compounds screened, about 31,000 (8.9%) were called active. Inconclusive results, whose numbers are uncertain, are shown with a selection of clear calls. The call rests on the fitted dose curve; in most records, active means well fitted inhibition curve with a large enough effect; inconclusive means small, poorly fitted or top-dose-only effect; inactive means no such curve, though single readings can be large or run the other way. A potency beside an inconclusive call is a rough fit, not a confirmed value.

biological target: Histone-lysine N-methyltransferase EHMT2 (Homo sapiens) (UniProt Q96KQ7); experiment: qHTS Assay for Inhibitors of Histone Lysine Methyltransferase G9a; conditions: G9a H3K9 monomethylation, AlphaScreen, 2 h; activity, negative = inhibition: at 59 µM (top of the series) unless noted; further: nearly all actives have a fitted effect of over 75% in size
How it was run: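 AlphaScreen detection with an anti-monomethyl H3K9 antibody quantified product after a 2 h room-temperature reaction containing 500 nM biotinylated H3K9 peptide, 20 µM SAM and 20 nM enzyme, which had been preincubated 15 min with compound.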
On the % scale 0 is the no-effect control and ±100 the full control effect; potency means the concentration at half of the fitted maximal effect; tags describe the fitted curve by direction and shape.

UniProt Q96KQ7, sequence (Q96KQ7 whole entry, looked up): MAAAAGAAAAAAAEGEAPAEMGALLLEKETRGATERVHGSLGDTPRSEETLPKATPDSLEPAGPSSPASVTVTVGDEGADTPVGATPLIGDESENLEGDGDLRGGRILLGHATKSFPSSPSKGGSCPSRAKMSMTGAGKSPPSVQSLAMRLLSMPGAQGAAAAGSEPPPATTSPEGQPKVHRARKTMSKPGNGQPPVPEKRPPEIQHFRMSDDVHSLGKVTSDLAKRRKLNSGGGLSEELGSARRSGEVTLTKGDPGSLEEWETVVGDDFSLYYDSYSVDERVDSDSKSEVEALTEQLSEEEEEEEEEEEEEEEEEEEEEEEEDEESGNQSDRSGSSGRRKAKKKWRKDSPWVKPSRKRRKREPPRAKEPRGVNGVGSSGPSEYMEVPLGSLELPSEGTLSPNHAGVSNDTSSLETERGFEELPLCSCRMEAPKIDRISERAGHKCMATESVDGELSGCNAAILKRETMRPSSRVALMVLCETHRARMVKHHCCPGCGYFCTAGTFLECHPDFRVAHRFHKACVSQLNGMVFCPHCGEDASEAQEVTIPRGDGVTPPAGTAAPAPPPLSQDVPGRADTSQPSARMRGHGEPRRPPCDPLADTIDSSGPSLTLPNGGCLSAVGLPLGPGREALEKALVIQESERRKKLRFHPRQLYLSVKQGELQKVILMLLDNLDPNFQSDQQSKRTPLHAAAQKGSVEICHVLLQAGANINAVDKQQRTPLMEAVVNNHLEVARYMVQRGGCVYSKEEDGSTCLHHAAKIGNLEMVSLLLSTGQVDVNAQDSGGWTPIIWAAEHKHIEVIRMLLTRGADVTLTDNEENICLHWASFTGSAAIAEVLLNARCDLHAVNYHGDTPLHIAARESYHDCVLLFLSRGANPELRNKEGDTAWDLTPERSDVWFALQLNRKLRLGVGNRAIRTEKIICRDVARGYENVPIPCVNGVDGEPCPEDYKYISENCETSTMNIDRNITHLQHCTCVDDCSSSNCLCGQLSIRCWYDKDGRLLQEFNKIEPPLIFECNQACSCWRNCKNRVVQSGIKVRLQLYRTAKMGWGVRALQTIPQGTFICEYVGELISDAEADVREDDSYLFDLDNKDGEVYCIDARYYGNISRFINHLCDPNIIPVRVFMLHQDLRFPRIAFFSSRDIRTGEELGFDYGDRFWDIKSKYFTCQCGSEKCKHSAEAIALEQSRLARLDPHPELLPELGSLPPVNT

| Compound | activity, negative = inhibition | Potency |
| --- | --- | --- |
| CCN1CCN(Cc2c(O)ccc3c(=O)c(-c4ccc(OC)c(OC)c4)c(C)oc23)CC1 | inconclusive: -59.8% [inhibitor] [at 102 µM] |  |
| CCCCC(=O)Nc1ccc(C(=O)NNC(=S)NC(=O)c2ccccc2[N+](=O)[O-])cc1 |  | inconclusive: 56.2 µM [inhibitor, partial curve, poor fit] |
| Cc1ccc2oc(=O)c3cnn(CC(=O)NCCc4ccsc4)c3c2c1 |  | inconclusive: 89.1 µM [inhibitor, single point] |
| CC(=O)c1c(C)nc(-c2ccc3c(c2)OCO3)n1O |  | active: 56.2 µM |
| COc1ccccc1CNc1ccc(-c2nc(-c3ccccc3C)no2)cc1[N+](=O)[O-] | inactive: -40.2% |  |
| CNC(=S)NCCc1ccccc1 | inactive: 7.77% [at 102 µM] |  |
| O=C(CNc1ccc(Br)cc1)c1ccc(Br)s1 |  | active: 39.8 µM |
| O=C(NCCCCNC(=O)C(F)(F)F)C(F)(F)F | inactive: -35.5% |  |
| CCCCCCC(=O)Nc1nc(C)c(-c2csc(Nc3ccccc3OC)n2)s1 | inactive: 4.64% |  |
| CS(=O)(=O)N1CCN(c2ccccc2NC(=O)c2ccc(-c3ccc(Br)cc3)o2)CC1 |  | inconclusive: 31.6 µM [inhibitor, single point] |
| COc1ccc(NC(=O)CSCC(=O)NCc2ccco2)cc1 |  | inconclusive: 89.1 µM [inhibitor, partial curve, poor fit] |
| C=C(C)c1cccc(C(C)(C)NC(=O)N2CCCCC2CC)c1 (stereo not drawn) |  | inconclusive: 28.2 µM [inhibitor, single point] |
| CCC(C)N(C(=O)COC(=O)c1nc(Cl)ccc1Cl)C1CCS(=O)(=O)C1 (stereo not drawn) | inactive: -0.744% [at 0.501 µM] |  |
| Cc1ccnc(NC(=O)CNC(=O)c2ccc3ccccc3c2)c1 | inactive: -0.736% |  |
| COc1ccccc1-c1nc2ccccc2c(=O)n1O |  | active: 35.5 µM |
| CCN1CCN(C(c2cccs2)C(C)NC(=S)Nc2cccc(C)c2C)CC1 (stereo not drawn) |  | inconclusive: 89.1 µM [inhibitor, partial curve, poor fit] |
| CCCCCc1c(O)nc(SCC(=O)NCC2CCCO2)[nH]c1=O (stereo not drawn) |  | inconclusive: 39.8 µM [inhibitor, single point] |
| COc1cc(Cl)c(S(=O)(=O)n2cnc(C)c2)cc1Cl | inactive: 8.6% |  |
| CCCC(=O)C1=C(O)C(C(=O)OC)C(C)(C)CC1=Nc1ccc(N)cc1 (stereo not drawn) |  | inconclusive: 79.4 µM [inhibitor, partial curve, poor fit] |
| O=C(O)CCSc1nnnn1-c1ccccc1 | inactive: 24.3% [at 102 µM] |  |
| Cc1ccn2c(Nc3ccc4c(c3)OCO4)c(-c3ccc(Cl)cc3)nc2c1 |  | active: 2.82 µM |
| CCC(C)Sc1nc2c(c(=O)[nH]1)C(c1cccs1)C1=C(CCCC1=O)N2 (stereo not drawn) |  | inconclusive: 0.794 µM [inhibitor, full curve, poor fit] |
| COc1ccc(C2=NC3(CCCCCC3)N(CC(=O)Nc3cccc(Cl)c3)C2=O)cc1 | inactive: -29.5% |  |
| COCCNC(=O)COc1ccc(Nc2ccccc2)cc1 |  | active: 50.1 µM |
| Cc1cc(C)nc(SCc2cc(=O)c(OC(=O)c3cccc([N+](=O)[O-])c3)co2)n1 |  | inconclusive: 28.2 µM [inhibitor, single point] |

| Compound | activity, negative = inhibition | Potency |
| --- | --- | --- |
| CCn1cc(C(=O)NCC(OC)OC)c(=O)c2cc(S(=O)(=O)N3CCOCC3)ccc21 | inactive: 46.6% [at 102 µM] |  |
| Cc1[nH]c2ccccc2c1C(O)c1ccncc1 (stereo not drawn) | inactive: -40.9% [at 102 µM] |  |
| COc1ccc2oc(C(=O)C3CC3)c(N)c2c1 |  | inconclusive: 50.1 µM [inhibitor, partial curve] |
| Cc1noc(C)c1CSCC(=O)Nc1ccc(Br)cc1Cl |  | inconclusive: 79.4 µM [inhibitor, single point] |
| COC(=O)c1c(C)[nH]c(C(=O)CN(C)CC(=O)Nc2cccc(F)c2)c1C | inconclusive: -118% [inhibitor] [at 12.7 µM] |  |
| CC1C=CCC2C(=O)N(c3cccc(C(=O)NCCc4ccccc4)c3)C(=O)C12 (stereo not drawn) |  | inconclusive: 35.5 µM [inhibitor, partial curve, poor fit] |
| O=C(NCCOc1ccccc1)c1cc2ccccc2o1 | inactive: 18.2% |  |
| CCCCCC(=O)Nc1nc(C)c(-c2csc(Nc3cc(Cl)ccc3C)n2)s1 |  | inconclusive: 20 µM [inhibitor, single point] |
| Cc1cc(-n2nc(C)cc2C)nc(NS(=O)(=O)c2ccccc2Cl)n1 |  | inconclusive: 39.8 µM [inhibitor, single point] |
| C#CCOCCOCCOCCNc1nc(N2CCOCC2)nc(N2CCN(C(=O)[C@H]([C@@H](C)CC)n3cc([C@@H](N)Cc4ccc(O)cc4)nn3)CC2)n1 | inconclusive: -70.8% [inhibitor] |  |
| CCOC(=O)c1c(C)c(C(=O)NCc2ccco2)c(C)n1Cc1ccccc1 |  | inconclusive: 50.1 µM [inhibitor, partial curve] |
| COc1cccc(C2C3=C(N=c4s/c(=C\c5ccccc5O)c(=O)n42)c2ccccc2CC3)c1OC (stereo not drawn) |  | inconclusive: 22.4 µM [inhibitor, partial curve, poor fit] |
| CCOc1ccc(-c2nnc(SCC(=O)NC(C)CC)nc2-c2ccc(OCC)c(OC)c2)cc1OC (stereo not drawn) | inactive: -42% |  |
| COc1cc(OC)cc(-c2cc(N)n(S(=O)(=O)c3cccc4nsnc34)n2)c1 |  | inconclusive: 10 µM [inhibitor, full curve] |
| CCOc1ccc(-n2nc3ccc(NC(=O)c4cccc(F)c4)cc3n2)cc1 | inactive: 3.5% |  |
| OCCCc1n[nH]c(=S)n1-c1ccccc1 |  | inconclusive: 44.7 µM [inhibitor, partial curve] |
| CSCCC(NC(=O)c1ccc(Cl)cc1Cl)C(=O)N(C)Cc1nc2ccccc2c(=O)[nH]1 (stereo not drawn) |  | inconclusive: 89.1 µM [inhibitor, single point] |
| CCn1c(C)c(CS(=O)(=O)c2ccccc2)[nH]c1=O |  | active: 1 µM |
| COc1ccccc1-n1c(CNC(=O)c2cccs2)n[nH]c1=S |  | inconclusive: 39.8 µM [inhibitor, single point] |
| CCOC(=O)N1CCN(C(=O)COC(=O)CNC(=O)c2ccc(OCC)c(OCC)c2)CC1 |  | inconclusive: 56.2 µM [inhibitor, partial curve, poor fit] |
| COc1ccccc1NC(=O)c1c([N+](=O)[O-])c(C(C)(C)C)nn1C |  | inconclusive: 79.4 µM [inhibitor, partial curve, poor fit] |
| CCC1(CC)NC(=O)N(CC(=O)OCC(=O)c2ccccc2OC)C1=O | inactive: 8.52% [at 12.7 µM] |  |
| COC(=O)c1c(-c2cc(C)ccc2C)csc1NC(=O)C1CC=CCC1C(=O)O (stereo not drawn) |  | inconclusive: 35.5 µM [inhibitor, single point] |
| CNC(=O)COC(=O)c1ccc([N+](=O)[O-])cc1Cl |  | inconclusive: 79.4 µM [inhibitor, single point] |
| CCCc1nc(S(=O)(=O)Cc2ccc(Cl)cc2Cl)n[nH]1 |  | inconclusive: 89.1 µM [inhibitor, single point] |

| Compound | activity, negative = inhibition | Potency |
| --- | --- | --- |
| CCOc1ccc(NC(=O)C(c2ccccn2)N(C(=O)CCl)c2ccc(OC)cc2)cc1 (stereo not drawn) |  | active: 2 µM |
| COc1cc2c(cc1OC)C(COc1ccc(F)cc1)NCC2 (stereo not drawn) |  | inconclusive: 28.2 µM [inhibitor, partial curve, poor fit] |
| Cc1ccc(Nc2c([N+](=O)[O-])ccc3nonc23)c(C)c1 |  | inconclusive: 70.8 µM [inhibitor, single point] |
| Cc1cc(O)c(C(=O)c2ccccc2C(=O)O)cc1C | inactive: -6.93% |  |
| Cc1ccc(N=Cc2cc(C)n(C3CCCC3)c2C)cc1 | inactive: 15.2% [at 0.0925 µM] |  |
| COC(=O)C(CCCCNC(=O)c1ccc([N+](=O)[O-])cc1)NC(=O)c1ccc([N+](=O)[O-])cc1 (stereo not drawn) |  | inconclusive: 89.1 µM [inhibitor, single point] |
| CCOc1ccc(-n2c(=O)c3c(C)c(C)sc3n(CC(=O)Nc3ccc(CC)cc3)c2=O)cc1 | inactive: -0.983% |  |
| Cc1ccccc1Nc1c(-c2cccnc2)nc2cccc(C)n12 | inactive: -28.5% [at 102 µM] |  |
| O=C1C(Cc2ccccc2)Nc2ncnc(N3CCN(c4ccccc4)CC3)c2N1Cc1ccccc1 (stereo not drawn) |  | inconclusive: 3.55 µM [inhibitor, single point] |
| C#C[C@]1(O)CC[C@@H]2[C@H]3CCc4cc(OC)ccc4[C@@H]3CC[C@@]21C | inactive: 23.3% [at 21.5 µM] |  |
| COc1ccc(C(=O)NC(=S)NNC(=O)c2ccncc2)cc1Br |  | inconclusive: 7.94 µM [inhibitor, single point] |
| O=C(CN1CCN(Cc2ccc3c(c2)OCO3)CC1)N1CCc2[nH]c3ccc(F)cc3c2C1 | inconclusive: -91.8% [inhibitor] |  |
| COC(=O)c1[nH]c2cc(OC)ccc2c1N=CN(C)C |  | active: 39.8 µM |
| COc1ccc(-n2c(-c3ccco3)n[nH]c2=S)cc1 |  | active: 3.98 µM |
| CCN(CC)c1ccc(C=Nc2ccc(C)cc2)c(O)c1 |  | inconclusive: 14.1 µM [inhibitor, partial curve, poor fit] |
| O=C(Nc1ccc(F)cc1)C1COc2ccccc2O1 (stereo not drawn) |  | active: 39.8 µM |
| O=C(C[n+]1ccccc1)N/N=C/c1ccc(Br)cc1 | inactive: 5.28% [at 2.33 µM] |  |
| c1ccc(C[n+]2cccc(-c3ccccc3)c2)cc1 | inactive: 7.19% |  |
| Cc1ncsc1CCOC(=O)c1ccc(N2CCOCC2)c([N+](=O)[O-])c1 |  | inconclusive: 50.1 µM [inhibitor, partial curve, poor fit] |
| Cc1cccc(CN2CCN(C(=O)CCl)CC2)c1 |  | inconclusive: 89.1 µM [inhibitor, single point] |
| O=C(NCCCNC(=O)c1ccccc1F)c1ccco1 | inactive: 9.53% [at 102 µM] |  |
| O=C(NCc1ccco1)C1CC(=O)N(c2ccc(Cl)cc2)C1 (stereo not drawn) | inactive: -44.8% [at 102 µM] |  |
| Cn1nc(-c2ccc(OCC(=O)Nc3ccc(Cl)cc3)cc2)c2ccccc2c1=O |  | inconclusive: 12.6 µM [inhibitor, partial curve, poor fit] |
